# In PMC5836133:
# Some of the results follow. At the low end of the ranking the order means little.
# System: T1, GST-NbGlk1(82-244)
# T1 sequence: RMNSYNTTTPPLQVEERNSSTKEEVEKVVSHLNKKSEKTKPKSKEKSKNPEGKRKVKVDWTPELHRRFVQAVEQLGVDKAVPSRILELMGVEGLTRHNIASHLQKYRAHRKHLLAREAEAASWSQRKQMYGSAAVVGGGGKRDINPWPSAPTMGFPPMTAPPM
# Assay: protein-binding microarray;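 further: rank-based score ranging −0.5 to +0.5 with E above 0.45 taken as significant binding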
# Conditions: NbGlk1 is a Golden2-like transcription factor of Nicotiana benthamiana; high values mean tight binding; most listed sequences are background and not binding sites; double strand, one strand shown
row,Sequence,binding signal [E-score]
1,ACTCGTCC,-0.115
2,AAACTCCC,-0.219
3,CACCTCGA,-0.105
4,ACAGTCCA,-0.131
5,ATTGTCGG,0.0652
6,AAAAGATA,0.19
7,ATACAACC,-0.0811
8,AGAAGGCG,-0.21
9,AAAAATTC,0.151
10,ATGGCAAT,0.237
11,AACTAACA,0.0231
12,AGCTCAGA,-0.084
13,AGCAACTG,-0.175
14,AACTAAGC,-0.0405
15,ATGTCATA,0.0662
16,ACTCCGCA,-0.0594
17,ACGCGCCA,-0.114
18,AGCCTTCC,-0.377
19,CACGAACG,-0.185
20,ACTGGTTC,-0.192
21,ATAGGGCG,-0.0412
22,CACGCACA,-0.182
23,ATGTATCC,0.125
24,AGCCCATC,-0.181
25,ATCGTCAG,0.16

row,Sequence,binding signal [E-score]
1,ACGACCAG,-0.177
2,CAGACCGA,-0.082
3,AACAGCGG,-0.0877
4,AAGCTTTG,-0.0684
5,ATTCACGC,0.0641
6,AGATGGTA,0.0169
7,AACTTTGG,0.0457
8,ACTAGTCC,-0.196
9,AATAGTCA,-0.0577
10,AAGGCACT,-0.304
11,ACAGTGCG,0.0789
12,ATGCCCAG,-0.204
13,AGAGAGCG,-0.117
14,ATACCTAG,0.057
15,AGCGTGCA,-0.157
16,AAGTGGTA,0.0203
17,CACGGATG,-0.0843
18,CACATTCA,0.169
19,ATTCGCGG,0.239
20,ACGTTTCG,0.00777
21,AGGAATAT,0.357
22,CAGCACCA,-0.226
23,AAACATAG,0.00303
24,AGGAACAG,-0.162
25,AACGGTCC,-0.145

row,Sequence,binding signal [E-score]
1,AAGGTTAT,-0.0865
2,ATCAGGAT,0.344
3,ATGAACTC,-0.198
4,ATGCCACA,0.000913
5,AGTCCGTC,-0.313
6,ATAAACGA,0.059
7,ACTAGGGA,-0.177
8,AACCGGCC,-0.153
9,ACGTTTAG,-0.132
10,AAACCCCT,-0.27
11,ATGAACGA,0.02
12,AAATTGGC,-0.00458
13,AAGCAAAA,-0.0474
14,CACATGAG,-0.00253
15,CACCTACG,-0.123
16,ACCGCGTA,-0.00453
17,CAAACTAG,-0.0102
18,AGTACTTA,0.0793
19,AGCGAACA,0.0202
20,AGCCTCCG,-0.249
21,CACCGCTA,-0.0751
22,AATCTCTA,0.377
23,AAGGATAT,0.387
24,ACTTTGCC,-0.0593
25,ACGCTATA,0.0332

row,Sequence,binding signal [E-score]
1,ATTCGTGC,0.0416
2,ATATCGCA,0.355
3,AACCTGCA,-0.0844
4,ACATAAGC,-0.0941
5,AGTCACAC,-0.13
6,AGATGTGC,-0.0484
7,ATTCCTCG,0.233
8,ACAAAAGT,-0.114
9,ATTGAAGA,0.112
10,AAATGAAC,-0.074
11,AAGTGTCA,-0.166
12,ATTCAATA,0.031
13,ATGGACAT,-0.0143
14,AGAGACCC,-0.33
15,CACGCAAC,0.0233
16,AAACAAGC,-0.0387
17,ATTTCCTG,0.362
18,ACAGTAGT,-0.0744
19,CACCAGTA,-0.00762
20,AAGGTAGT,-0.0011
21,ACCAGTTA,-0.0697
22,ATGCAAAG,0.0229
23,AACAGGAG,-0.136
24,AGCCCAAT,-0.211
25,ATAAGACC,-0.269

row,Sequence,binding signal [E-score]
1,CAGAAGCA,-0.185
2,ACGCTCGG,-0.151
3,CACTTCGG,-0.0724
4,AGCCCTGC,-0.264
5,ACGCAGGG,-0.222
6,ATCGGATA,0.33
7,AAGTCCGC,-0.0805
8,AATCCACT,0.364
9,AGTACTGA,0.0794
10,AGTGTCAA,-0.0188
11,ATCCGCTG,0.261
12,AGTCCTAG,-0.151
13,AAGTATCG,0.185
14,ATTATCAA,0.147
15,CAAGCAAA,0.0803
16,AATACGCT,0.105
17,AGCGCGTA,-0.0394
18,ACGCGGTA,-0.169
19,ACTAATCG,-0.0313
20,AGGGAGGC,-0.36
21,AATCCAAG,0.394
22,AATGGCAC,-0.0958
23,ACAAGGTA,-0.073
24,ATCAGCTG,0.0711
25,AACAGTGA,-0.164

row,Sequence,binding signal [E-score]
1,CACAGGTA,-0.0211
2,ACCTAGCT,-0.174
3,ACAATCAG,0.237
4,ACGGAATA,0.264
5,AACTGCTC,-0.0983
6,ACTCCTAC,-0.185
7,AATCGCCG,0.301
8,ACACGCTG,-0.141
9,ATTATATA,0.215
10,ACGCAACG,0.0162
11,ACTCCACA,-0.0399
12,ATCTAGTA,0.316
13,AAGGATAA,0.13
14,AATAGTTA,0.148
15,AAAACAAC,0.0975
16,AATATGGA,0.156
17,ATGTTCAG,-0.0573
18,AACGCTGA,0.0211
19,ACCGTAAC,0.0528
20,ACGGATGA,-0.152
21,AGATCCTC,0.387
22,AACTCGCC,-0.159
23,ATCTACGA,0.334
24,ACCTTCCG,-0.0959
25,ATCAAGTC,0.0474

row,Sequence,binding signal [E-score]
1,AGCCGCTC,-0.221
2,AACTACCC,-0.0879
3,AGAGTTTA,0.0323
4,AAGCACCC,-0.259
5,AACGGCAC,-0.0234
6,AGATCATC,0.147
7,ACGTAAAA,0.102
8,AAGTACAT,0.0438
9,CAAAAGAG,-0.0501
10,AAGGTTCG,0.00773
11,AGAGGATC,0.373
12,AAGTCCGT,-0.126
13,ACTCTATG,-0.194
14,ACAGAACT,0.0162
15,ATGCTACC,-0.142
16,ACCATCGA,-0.0893
17,ATAAAATG,0.00793
18,AGGACCCC,-0.349
19,AAGTCCGG,-0.217
20,ATAATATA,0.233
21,ACAAGGGG,0.0357
22,CAGACTCG,-0.303
